# According to the supplement of paper PMC8728848:
# Some of the results follow.
# B1: ECL (Erythrina cristagalli), Q6YD91 (protein)
# chain: VETISFSFSEFEPGNNDLTLQGAAIITQSGVLQLTKINQNGMPAWDSTGRTLYTKPVHIWDMTTGTVASFETRFSFSIEQPYTRPLPADGLVFFMGPTKSKPAQGYGYLGVFNNSKQDNSYQTLAVEFDTFSNPWDPPQVPHIGIDVNSIRSIKTQPFQLDNGQVANVVIKYDASSKILLAVLVYPSSGAIYTIAEIVDVKQVLPEWVDVGLSGATGAQRDAAETHDVYSWSFHASLPETND
# Legend:
# Assay in all cases: glycan array binding signal (z-score within array); higher = stronger binding
# Conditions in all cases: glycan notation: IUPAC condensed, linker removed
# [1] = target: Fuc(a1-3)GlcNAc
# Procedure, shortened: (§1)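 Glycan array data were curated from 3228 arrays in the Consortium for Functional Glycomics database and kept only where the protein sequence was available. Glycan names were converted to IUPAC-condensed notation, and columns mapping to the same glycan were averaged. The binding signal is a within-array Z-score, averaged across arrays of the same protein sequence at different concentrations or buffers and across linkers. Negative Z-scores can be read as non-binding.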
# [2] = target: Fuc(a1-3)[Gal(b1-4)]Glc6S
# Procedure, shortened: as §1
# [3] = target: Fuc(a1-3)[Gal(b1-4)]GlcNAc
# Procedure, shortened: as §1
# [4] = target: Fuc(a1-3)[Gal(b1-4)]GlcNAc(b1-2)Man
# Procedure, shortened: as §1
# [5] = target: Fuc(a1-3)[Gal(b1-4)]GlcNAc(b1-2)Man(a1-3)[Fuc(a1-3)[Gal(b1-4)]GlcNAc(b1-2)Man(a1-6)]Man(b1-4)GlcNAc(b1-4)GlcNAc
# Procedure, shortened: as §1
# [6] = target: Fuc(a1-3)[Gal(b1-4)]GlcNAc(b1-2)Man(a1-3)[Fuc(a1-3)[Gal(b1-4)]GlcNAc(b1-2)Man(a1-6)]Man(b1-4)GlcNAc(b1-4)[Fuc(a1-6)]GlcNAc
# Procedure, shortened: as §1
# [7] = target: Fuc(a1-3)[Gal(b1-4)]GlcNAc(b1-3)Gal(b1-3)[Fuc(a1-4)]GlcNAc
# Procedure, shortened: as §1
# [8] = target: Fuc(a1-3)[Gal(b1-4)]GlcNAc(b1-3)GalNAc
# Procedure, shortened: as §1
# [9] = target: Fuc(a1-3)[Gal(b1-4)]GlcNAc(b1-4)Gal(b1-4)[Fuc(a1-3)]GlcNAc
# Procedure, shortened: as §1
# [10] = target: Fuc(a1-3)[Gal(b1-4)]GlcNAc(b1-4)Gal(b1-4)[Fuc(a1-3)]GlcNAc(b1-4)Gal(b1-4)[Fuc(a1-3)]GlcNAc
# Procedure, shortened: as §1
# [11] = target: Fuc(a1-3)[Gal(b1-4)]GlcNAc(b1-6)GalNAc
# Procedure, shortened: as §1
# [12] = target: Fuc(a1-3)[Gal(b1-4)]GlcNAc(b1-6)[Gal(b1-3)GlcNAc(b1-3)]Gal(b1-4)Glc
# Procedure, shortened: as §1
# [13] = target: Fuc(a1-3)[Gal(b1-4)]GlcNAc6S
# Procedure, shortened: as §1
# [14] = target: Fuc(a1-3)[Gal3S(b1-4)]Glc
# Procedure, shortened: as §1
# [15] = target: Fuc(a1-3)[Gal3S(b1-4)]GlcNAc
# Procedure, shortened: as §1
# [16] = target: Fuc(a1-3)[Gal3S(b1-4)]GlcNAc6S
# Procedure, shortened: as §1
# [17] = target: Fuc(a1-3)[GalNAc(b1-4)]GlcNAc
# Procedure, shortened: as §1
# [18] = target: Fuc(a1-3)[GalNAc(b1-4)]GlcNAc6S
# Procedure, shortened: as §1
# [19] = target: Fuc(a1-4)GlcNAc
# Procedure, shortened: as §1
# [20] = target: Fuc(b1-3)GlcNAc
# Procedure, shortened: as §1
# [21] = target: Gal(a1-2)Gal
# Procedure, shortened: as §1
# [22] = target: Gal(a1-3)Gal
# Procedure, shortened: as §1
# [23] = target: Gal(a1-3)Gal(b1-3)GlcNAc
# Procedure, shortened: as §1
# [24] = target: Gal(a1-3)Gal(b1-3)GlcNAc(b1-2)Man
# Procedure, shortened: as §1
# [25] = target: Gal(a1-3)Gal(b1-3)GlcNAc(b1-2)Man(a1-3)[Gal(a1-3)Gal(b1-3)GlcNAc(b1-2)Man(a1-6)]Man(b1-4)GlcNAc(b1-4)GlcNAc
# Procedure, shortened: as §1
# [26] = target: Gal(a1-3)Gal(b1-3)GlcNAc(b1-3)GalNAc
# Procedure, shortened: as §1
# [27] = target: Gal(a1-3)Gal(b1-3)GlcNAc(b1-6)GalNAc
# Procedure, shortened: as §1
# [28] = target: Gal(a1-3)Gal(b1-3)[Fuc(a1-4)]GlcNAc(b1-2)Man(a1-3)[Gal(a1-3)Gal(b1-3)[Fuc(a1-4)]GlcNAc(b1-2)Man(a1-6)]Man(b1-4)GlcNAc(b1-4)GlcNAc
# Procedure, shortened: as §1
# [29] = target: Gal(a1-3)Gal(b1-4)Glc
# Procedure, shortened: as §1
# [30] = target: Gal(a1-3)Gal(b1-4)GlcNAc
# Procedure, shortened: as §1
# [31] = target: Gal(a1-3)Gal(b1-4)GlcNAc(b1-2)Man
# Procedure, shortened: as §1
# [32] = target: Gal(a1-3)Gal(b1-4)GlcNAc(b1-2)Man(a1-3)[Gal(a1-3)Gal(b1-4)GlcNAc(b1-2)Man(a1-6)]Man(b1-4)GlcNAc(b1-4)GlcNAc
# Procedure, shortened: as §1
# [33] = target: Gal(a1-3)Gal(b1-4)GlcNAc(b1-3)GalNAc
# Procedure, shortened: as §1
# [34] = target: Gal(a1-3)Gal(b1-4)GlcNAc(b1-6)GalNAc
# Procedure, shortened: as §1
# [35] = target: Gal(a1-3)Gal(b1-4)[Fuc(a1-3)]GlcNAc
# Procedure, shortened: as §1
# [36] = target: Gal(a1-3)Gal(b1-4)[Fuc(a1-3)]GlcNAc(b1-2)Man(a1-3)[Gal(a1-3)Gal(b1-4)[Fuc(a1-3)]GlcNAc(b1-2)Man(a1-6)]Man(b1-4)GlcNAc(b1-4)GlcNAc
# Procedure, shortened: as §1
# [37] = target: Gal(a1-3)GalNAc
# Procedure, shortened: as §1
binder,measurement,setting,value
B1,glycan array binding signal (z-score),[1],-0.424
same,glycan array binding signal (z-score),[2],-0.148
same,glycan array binding signal (z-score),[3],-0.23
same,glycan array binding signal (z-score),[4],-0.236
same,glycan array binding signal (z-score),[5],-0.243
same,glycan array binding signal (z-score),[6],1.72
same,glycan array binding signal (z-score),[7],-0.15
same,glycan array binding signal (z-score),[8],-0.179
same,glycan array binding signal (z-score),[9],-0.233
same,glycan array binding signal (z-score),[10],-0.111
same,glycan array binding signal (z-score),[11],0.251
same,glycan array binding signal (z-score),[12],-0.145
same,glycan array binding signal (z-score),[13],-0.319
same,glycan array binding signal (z-score),[14],-0.256
same,glycan array binding signal (z-score),[15],-0.286
same,glycan array binding signal (z-score),[16],-0.357
same,glycan array binding signal (z-score),[17],-0.225
same,glycan array binding signal (z-score),[18],-0.33
same,glycan array binding signal (z-score),[19],-0.108
same,glycan array binding signal (z-score),[20],-0.258
same,glycan array binding signal (z-score),[21],-0.32
same,glycan array binding signal (z-score),[22],-0.343
same,glycan array binding signal (z-score),[23],-0.368
same,glycan array binding signal (z-score),[24],-0.209
same,glycan array binding signal (z-score),[25],0.219
same,glycan array binding signal (z-score),[26],-0.318
same,glycan array binding signal (z-score),[27],-0.127
same,glycan array binding signal (z-score),[28],0.558
same,glycan array binding signal (z-score),[29],-0.173
same,glycan array binding signal (z-score),[30],-0.235
same,glycan array binding signal (z-score),[31],-0.116
same,glycan array binding signal (z-score),[32],0.249
same,glycan array binding signal (z-score),[33],-0.276
same,glycan array binding signal (z-score),[34],-0.406
same,glycan array binding signal (z-score),[35],-0.139
same,glycan array binding signal (z-score),[36],-0.351
same,glycan array binding signal (z-score),[37],-0.134
